Among all 360,000 compounds or so, about 6,000 (1.7%) were called active. Inconclusive results, whose numbers are uncertain, are shown with a selection of clear calls. Calls come from the whole dose curve; as a rule, active = well fitted cell-killing curve with a large enough effect; inconclusive = small, poorly fitted or top-dose-only effect, or effect the other way; inactive = flat fitted curve, though single readings scatter. No potency is given beside an inconclusive call; the fits are too rough.
Test: qHTS for induction of synthetic lethality in tumor cells producing 2HG: qHTS for the HT-1080-NT fibrosarcoma cell line;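 note: NT is the 2HG producing partner of a matched IDH1 knockdown line; nearly all actives have a fitted effect of over 55% in size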;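 for activity, negative = less viability: 0% = DMSO-treated cells and -100% = media-only wells without cells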
Conditions: HT-1080-NT fibrosarcoma viability, CellTiter-Glo ATP luminescence, 48 h; activity, negative = less viability: at 46.1 µM (top of the series) unless noted
Method in brief: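 750 cells/well, RPMI + 5% FBS; 2 h settle, compound pin-transfer, 48 h at 37 degrees C. CellTiter-Glo 10 min RT, luminescence. Normalized to DMSO and media-only wells.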
In the case of `CCCc1nc2ccccc2c(=O)n1/N=C/c1ccccc1O`, the Potency is reported as inconclusive [cytotoxic, single point]. For `CCCCNC(=O)c1cc(-c2ccc(F)cc2)on1`, the Potency was inconclusive [cytotoxic, single point]. In the case of `COc1ccc(-c2csc(NC(=O)CN3C(=O)CCC3=O)n2)c(OC)c1`, the Potency is reported as inconclusive [rising, partial curve]. With `CS(=O)(=O)c1cccc(C(=O)Nc2ccc(-c3nc4ccccc4[nH]3)cc2)c1` the Potency was active: 11.6 µM. With `Cn1c(=O)[nH]c(=O)c2c1nc(Br)n2C/C=N/Nc1ccccc1` the Potency was active: 3.66 µM. For `COc1ccc(-n2ncc(Cl)c(Cl)c2=O)cc1`, the Potency was active: 4.61 µM. For `Cc1cccc(NC(=O)CSc2ccc(-c3ccccn3)nn2)c1C`, the Potency was “inactive”. For `CCCCn1c(N)c(N(CCOC)C(=O)c2cccc(S(=O)(=O)N(CC)c3ccccc3)c2)c(=O)[nH]c1=O`, the Potency was “inactive”. In the case of `CSc1nc(C)cc(OCC(=O)N/N=C/c2ccccc2O)n1`, the activity, negative = less viability is reported as inconclusive: -30.7% [cytotoxic]. In the case of `Oc1ccc(Cc2ccc(Cl)cc2)c(O)c1`, the Potency is reported as “inactive”. For `CCCOc1ccc(C(=O)C(c2ccccc2)N2CCOCC2)cc1` (stereo not given), the Potency was “inactive”. In the case of `COc1ccc(C(=O)C[C@@H]2OC[C@H](C)N2S(=O)(=O)c2ccc(C)cc2)cc1OC`, the Potency is reported as “inactive”. With `CCOC(=O)CC1(CC(=O)OCC)NC(=O)c2c(C)sc(C(=O)OCC)c2N1` the Potency was “inactive”. For `O=C1Nc2cc(C(=O)NCCN3CCCCCC3)ccc2S/C1=C\c1ccccc1`, the Potency was inconclusive [cytotoxic, single point]. In the case of `COc1cc2c(cc1NC(=O)C(Cl)Cl)-c1ccc(NC(=O)C(Cl)Cl)cc1C2`, the Potency is reported as inconclusive [cytotoxic, single point]. For `CCOC(=O)c1c(NC(=S)N2CCOCC2)sc2c1CCN(C(=O)OCC)C2`, the Potency was active: 9.2 µM. For `C=CC[C@@H](CC(=O)N[C@H](CO)Cc1ccccc1)C(=O)N[C@H](COC(=O)[C@@H](CC=C)CC(=O)OC(C)(C)C)Cc1c[nH]c2ccccc12`, the Potency was inconclusive [cytotoxic, single point]. In the case of `CCOC(=O)C1(CCc2ccccc2)CCN(C(=O)C2CCCO2)CC1` (stereo not given), the Potency is reported as “inactive”. For `Cc1cccc2c1-c1sc(C(=O)Nc3ccccc3N3CCN(C)CC3)cc1CO2`, the Potency was inconclusive [cytotoxic, partial curve]. In the case of `COc1ccc(C(C(=O)Nc2ccc3c(c2)OCO3)N(C)C(=O)Cc2c[nH]c3ccccc23)cc1` (stereo not given), the Potency is reported as inconclusive [cytotoxic, single point]. For `Cc1cc(C(=O)Nc2ccc3c(c2)OCO3)no1`, the Potency was inconclusive [cytotoxic, partial curve]. In the case of `O=[N+]([O-])c1ccc2c(c1)C(N1CCN(CCO)CC1)Cc1ccc(F)cc1S2` (stereo not given), the Potency is reported as active: 16.4 µM. For `COc1ccccc1C(=O)O/N=C(\N)c1ccccn1`, the Potency was inconclusive [cytotoxic, single point]. With `CCOC(=O)c1c(N)sc2c(OCC)c(Br)ccc12` the Potency was inconclusive [cytotoxic, single point]. In the case of `COc1cccc(COc2ccc3c(C)cc(=O)oc3c2)c1`, the Potency is reported as “inactive”. For `CN(CC(=O)Nc1cccc(S(=O)(=O)N2CCCCC2)c1)Cc1ccc(F)cc1`, the Potency was “inactive”. With `CC1CCN(C(=O)CSc2n[nH]c(-c3cccs3)n2)CC1` the Potency was inconclusive [rising, partial curve]. With `Cc1cc(NC(=O)CCCSc2nc(-c3ccco3)cc(C(F)(F)F)n2)no1` the Potency was “inactive”. In the case of `CCOc1cc(/C=N/O)ccc1OCc1ccc(C)cc1`, the Potency is reported as inconclusive [cytotoxic, single point]. For `Nc1nc2c(nnn2C2CC(O)C(CO)O2)c(=O)[nH]1` (stereo not given), the Potency was inconclusive [cytotoxic, partial curve]. In the case of `O=C(Nc1nc(-c2ccccc2)ns1)c1ccncc1`, the Potency is reported as “inactive”. With `CCOC(=O)N1CCN(C2=C(NS(=O)(=O)c3ccc(C)cc3)C(=O)c3ccccc3C2=O)CC1` the Potency was inconclusive [cytotoxic, single point]. In the case of `CCOc1ccccc1NC(=O)COC(=O)CNS(=O)(=O)c1ccc(C)cc1`, the Potency is reported as “inactive”. With `COc1cc(Cl)ccc1OC1(C)CCN(Cc2ccc(-c3ccccn3)cc2)C1` (stereo not given) the Potency was active: 16.4 µM. With `CCCCN1C(=O)C(NC(C)=O)c2cc(Br)ccc21` (stereo not given) the Potency was “inactive”. In the case of `O=C(Nc1cccc(C(=O)N2CCCc3ccccc32)c1)c1ccccc1`, the Potency is reported as inconclusive [cytotoxic, partial curve]. With `Cc1cnc(CNC(=O)c2csc([C@@H]3C[C@H](O)[C@@H](CO)O3)n2)cn1` the Potency was “inactive”. With `Oc1cccnc1Sc1cccc(C(F)(F)F)c1` the Potency was “inactive”. For `CN(C)Cc1nc2ccccc2c(=O)n1Cc1nc(-c2cc3ccccc3o2)cs1`, the Potency was “inactive”. For `Cc1ccc(-n2ccnc2SCC(=O)N(CC(C)C)C2CCS(=O)(=O)C2)c(C)c1` (stereo not given), the Potency was “inactive”. With `CN(C)c1ccc(/C=N/NC(=O)CN(c2cccc(Cl)c2)S(C)(=O)=O)cc1Br` the Potency was inconclusive [cytotoxic, single point]. In the case of `O=C(N[C@H]1CCC(=O)N([C@H](CSc2ccc(Br)cc2)Cc2ccccc2)CC1)OCc1ccccc1`, the Potency is reported as “inactive”. In the case of `CCOC(=O)[C@]12CCC=C1N(Cc1cccc3ccccc13)C(=O)[C@H](CC(=O)NCc1ccc(C)o1)C2`, the Potency is reported as inconclusive [cytotoxic, single point]. For `CCc1nc2ccc(C(=O)Nc3cc(-c4ccccc4)ccc3OC)cn2c1N(C)C(=O)c1cccc(OC)c1`, the Potency was “inactive”. For `O=C(NCc1ccco1)c1ccc(-c2ccc(F)c(F)c2)c2ccoc12`, the Potency was “inactive”. In the case of `COc1ccc(/C=C2\CCc3ccccc3C2=O)cc1Cn1nc(C)cc1C`, the Potency is reported as inconclusive [cytotoxic, partial curve]. For `O=C(COc1ccc(F)cc1)NCC1(N2CCOCC2)CCCCC1`, the Potency was “inactive”. In the case of `CC(=NNC(=O)c1ccncc1)c1ccc2ccccc2c1O`, the activity, negative = less viability is reported as inconclusive: -32.3% [cytotoxic]. For `O=C(/C=C/NNC(=O)c1ccccc1)c1ccc(Br)cc1`, the Potency was inconclusive [cytotoxic, single point]. In the case of `C#CCN(C[C@@H]1[C@@H](OC(=O)NCc2ccccc2F)[C@@H](OC(=O)NCc2ccccc2F)Cn2c(=O)ccc(=O)n21)S(=O)(=O)c1ccc(C)cc1`, the Potency is reported as active: 6.51 µM. With `COc1cc2cc(CN(C(=O)Nc3ccccc3)C3CCCC3)c(=O)[nH]c2cc1OC` the Potency was “inactive”. For `COc1ccc(C=O)cc1OC(=O)C1(C)Cc2ccccc2C(=O)O1` (stereo not given), the Potency was inconclusive [rising, full curve]. In the case of `O=C(CSc1ccc(Cl)cc1)NNC(=O)c1ccco1`, the Potency is reported as “inactive”. In the case of `C=CCn1c(Cc2cccs2)nnc1SCC(=O)NC1CC1`, the Potency is reported as inconclusive [rising, single point]. In the case of `COc1ccc(CNCCC(c2ccc(OC(C)C)cc2)c2ccccc2OC)cc1` (stereo not given), the Potency is reported as inconclusive [cytotoxic, single point]. With `COc1cc(OC)c2c(-c3cccc(-c4ccc(O)cc4)c3)cc(=O)oc2c1` the Potency was inconclusive [cytotoxic, partial curve]. With `COc1ccc(C=NNC(=O)c2cc(C)oc2C)cc1O` the Potency was inconclusive [cytotoxic, single point]. For `Cc1ccc(NC(=O)CC2Nc3ccccc3NC2=O)cc1Cl` (stereo not given), the Potency was active: 20.6 µM. With `Cc1ccc2cc(CCNC(=O)c3cc4ccccc4o3)c(=O)[nH]c2c1C` the Potency was “inactive”. In the case of `O=C(Nc1cccc(Cl)c1)Nc1nnc(-c2ccncc2)s1`, the Potency is reported as inconclusive [cytotoxic, full curve]. With `COc1ccc(C(=O)n2c(-c3ccco3)nc3ccccc32)cc1` the Potency was inconclusive [cytotoxic, full curve]. With `COc1cccc(CNC(=O)CCn2c(=O)c3cccn3c3cccnc32)c1` the Potency was inconclusive [rising, single point]. In the case of `COc1cc2cc(CCCOC(=O)CCC(=O)O)oc(=O)c2cc1OC`, the Potency is reported as “inactive”. With `CO/N=C/c1ccc(Oc2ccc([N+](=O)[O-])cc2[N+](=O)[O-])c(OC)c1` the Potency was inconclusive [cytotoxic, single point]. In the case of `Cc1cc(N/N=C/c2ccc(F)cc2)nc(NCc2ccccc2)n1`, the Potency is reported as active: 18.4 µM. In the case of `CCOC(=O)[C@]12CCCC=C1N(Cc1cccc3ccccc13)C(=O)[C@H](CC(=O)NCC13CC4CC(CC(C4)C1)C3)C2`, the Potency is reported as inconclusive [cytotoxic, single point]. In the case of `CCOC(=O)c1cc(CC)sc1N`, the Potency is reported as inconclusive [rising, single point]. For `CCOc1cc(S(=O)(=O)Nc2ccc(CC)cc2)ccc1Cl`, the Potency was inconclusive [cytotoxic, single point]. For `COc1cc(CCC(=O)Nc2nnc(C)s2)cc(OC)c1OC`, the Potency was active: 6.51 µM. With `C=CCn1c(-c2cccn(Cc3ccc(Cl)cc3)c2=O)n[nH]c1=S` the Potency was inconclusive [cytotoxic, single point]. With `Cc1ccc2c(c1)N1C(=O)c3ccccc3C1C1=C(CC(C)(C)CC1=O)N2` (stereo not given) the Potency was “inactive”. With `CC(=O)C[C@H](O)CC(=O)[C@H]1OC(=O)[C@@H](C)CCCCc2ccccc21` the Potency was “inactive”. In the case of `CC(=O)NC(Cc1c(F)c(F)c(F)c(F)c1F)C(=O)NCC(N)C(=O)c1ccccc1` (stereo not given), the Potency is reported as “inactive”. For `COc1ccccc1C(CCNCc1ccccc1)c1ccc(OC(C)C)cc1` (stereo not given), the Potency was inconclusive [cytotoxic, single point]. In the case of `COc1ccc(-c2cc(C(F)F)n3ncc(C(=O)N4CCc5ccccc54)c3n2)cc1`, the Potency is reported as active: 3.26 µM.
Potency is the fitted concentration of half-maximal effect; tags give direction and shape of the fitted curve.
